According to PubChem BioAssay AID1159614 (National Center for Advancing Translational Sciences (NCATS), 2016):
Out of some 45,000 compounds screened, about 65 (0.1%) were called active. Calls follow the shape of the dose curve; as a rule, active = well fitted activation curve with a large enough effect; inconclusive = small, poorly fitted or top-dose-only effect; inactive = no such curve, though single readings can be large or run the other way. The list shows a part of the results.

The compounds below were run against Galactocerebrosidase (Homo sapiens) (UniProt P54803) (assay: A Novel Cell-Based Assay to Identify Small Molecules for B -Galactocerebrosidase). Conditions: 145M-Twi-hGALC-G270D cells (Twitcher mouse brain line with human GALC G270D), HMU-beta-Gal fluorescence, 48 h; series mostly up to 57.5 µM; activation: at the top concentration.
Sequence of UniProt P54803 (P54803 whole entry, looked up): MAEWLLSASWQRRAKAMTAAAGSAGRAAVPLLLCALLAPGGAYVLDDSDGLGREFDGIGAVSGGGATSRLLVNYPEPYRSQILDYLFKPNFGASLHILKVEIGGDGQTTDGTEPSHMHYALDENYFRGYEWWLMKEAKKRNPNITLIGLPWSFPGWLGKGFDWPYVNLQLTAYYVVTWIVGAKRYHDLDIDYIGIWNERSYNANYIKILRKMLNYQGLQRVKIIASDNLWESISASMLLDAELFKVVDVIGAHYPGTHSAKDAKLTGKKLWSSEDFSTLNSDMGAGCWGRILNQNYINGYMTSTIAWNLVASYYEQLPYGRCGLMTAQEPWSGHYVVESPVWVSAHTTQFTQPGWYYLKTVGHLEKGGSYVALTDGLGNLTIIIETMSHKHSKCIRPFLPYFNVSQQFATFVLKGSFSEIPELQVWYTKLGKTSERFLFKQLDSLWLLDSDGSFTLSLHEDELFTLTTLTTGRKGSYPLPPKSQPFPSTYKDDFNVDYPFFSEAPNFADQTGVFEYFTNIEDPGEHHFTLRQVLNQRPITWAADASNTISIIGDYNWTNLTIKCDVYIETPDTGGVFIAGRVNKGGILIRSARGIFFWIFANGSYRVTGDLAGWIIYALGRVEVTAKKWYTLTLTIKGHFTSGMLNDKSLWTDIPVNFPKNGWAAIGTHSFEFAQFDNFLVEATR
Outline: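 Brain-derived Twitcher mouse 145M-Twi cells stably expressing human GALC-G270D or wild-type GALC, treated live, then residual GALC activity read by fluorescence of HMU-b-Gal substrate (0.1 mM final) in citrate-phosphate buffer pH 5.2 with sodium taurocholate. Signal increase indicates enhancement.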
Also: 0% is about no effect; nearly all actives have a fitted effect of over 65% in size.

activation, inactive:
CCCn1c(=O)c2sccc2n2c(CCCC(=O)Nc3ccc(Oc4ccccc4)cc3)nnc12 -9.68%
CCn1c(SCc2ccc(F)cc2Cl)nc(=O)c2c(C(=O)OC)cc(C3CC3)nc21 -3.78%
CC(C)C1N=C2c3ccccc3N=C(SCC(=O)NCc3ccccc3Cl)N2C1=O (configuration not stated) -16.4%
CNCCCCOc1ccccc1Cc1ccccc1 -7.76%
Cc1ccc(CNC(=O)c2cc(-c3ccc(C)cc3)nc3n[nH]c(-c4ccc(F)cc4)c23)cc1 -10.7%
CC(=O)Nc1ccc(S(=O)(=O)NCc2cccn2Cc2cccc(C)c2)cc1 -9.75%
CCOc1ccc(CN2C(=O)c3ccccc3Sc3ccc(C(=O)OC)cc32)cc1 -14.2%
COc1ccc(OC)c(CNC(=O)c2c(C)oc3ncn(C)c(=O)c23)c1 -8.13%
O=C(c1ccc2c(c1)CCN2S(=O)(=O)c1ccc(Cl)cc1)N1CCN(c2ccccc2)CC1 -31.4%
Nc1ccccc1N -4.5% [at 114 µM]
COc1ccc(CNC(=O)c2ccc3c(c2)N(Cc2ccccc2C)C(=O)c2ccccc2S3=O)cc1 (configuration not stated) -8.15%
O=C(NCc1ccc(F)cc1)C1CCN(c2ncnc3c2nc2n3CCCCC2)CC1 -13.9%
CC(C)(C)OC(=O)N1CCC(c2c(C(=O)N3CCN(c4ccccn4)CC3)cnn2-c2ccccc2Cl)CC1 -12.8%
CC(=O)c1ccc(NC(c2ccc(F)cc2)c2nnc(-c3ccccc3)o2)cc1 (configuration not stated) -1.59%
CCOC(=O)c1[nH]c(C)c(CCC(=O)N2CCN(c3cccc(C)c3C)CC2)c1C -10.9%
Cc1ccc2nc(-c3ccncc3)c(Nc3ccc(C(C)C)cc3)n2c1 -4.34%
CCOCCCNC(=O)c1cn(CC)c2ccc(S(=O)(=O)N3CCc4ccccc4C3)cc2c1=O -17.2%
COc1cc(C(CC(=O)Nc2cc(C)ccc2C)N2Cc3ccccc3C2=O)cc(OC)c1OC (configuration not stated) -25.3%
CN(Cc1ccccc1)C(=O)c1cccc(NC(=O)c2nsc3ccccc23)c1 -28.5%
CCOc1ccc(CC(=O)NCCc2csc(-c3ccc(Cl)cc3)n2)cc1 -6.01%
CCc1ccc(Nc2sc(C(=O)c3ccccc3)c(N)c2S(C)(=O)=O)cc1 -16.6%
CCOCCc1nn2c(=O)cc(COC(=O)CNC(=O)c3ccc(F)cc3)nc2s1 -8.36%
CCN(CC)c1cc(C)c2cc(NC(=O)c3ccc(F)cc3Cl)ccc2n1 3.5%
CCOc1ccccc1NC(c1nnc(-c2ccccc2)o1)c1ccc(F)cc1Cl (configuration not stated) -9.12%
Cn1c(=O)oc2cc(S(=O)(=O)N3CCC(C(=O)N4CCN(c5ccc(Cl)cc5)CC4)CC3)ccc21 -44.6%
CCN(C(=O)c1cc2c(=O)oc3ccc(C)cc3c2s1)c1ccccc1F -25.7%
CCOC(=O)c1c(NC(=O)c2ccc(OC)c(OC)c2)sc2c1CCCCC2 -18.8%
O=C(CCOc1ccccc1)N(Cc1cccnc1)c1nc2ccc(F)cc2s1 -13.2%
O=C(Nc1ccc2oc(-c3ccc(Cl)cc3)nc2c1)c1ccc2ccccc2c1 -7.98%
Cc1ccccc1CNC(=O)Nc1ccc2c(c1)N(C)C(=O)c1ccccc1S2 -3.42%
COc1ccc(C2CC(=O)N(Cc3ccccc3)c3c2c(C)nn3-c2nc(C)cc(C)n2)c(OC)c1 (configuration not stated) -12.8%
Cc1cccc(NS(=O)(=O)c2ccc(NC(=O)N3CCCC3)cc2)c1 -17.2%
CCOc1ccc(-c2oc3cc(Cl)ccc3c(=O)c2O)cc1OC -5.68%
CCN(CC)CCCN(c1ccccc1)C1Cc2ccccc2C1 -21%
C/C=C/c1ccc(O)c(OC)c1 -8.85%
CCc1ccc(NS(=O)(=O)c2ccc3[nH]cc(C(=O)N(C)Cc4ccco4)c(=O)c3c2)cc1 -6.11%
CCc1ccccc1NC(=O)Cn1cc2c(n1)CCC(C)C2 (configuration not stated) -19.1%
CCC(=O)N1CCc2cc(Br)cc(S(=O)(=O)CCC(=O)NCCc3ccccc3)c21 -8.28%
O=c1cc(-c2ccccc2)c2ccc3c(c2o1)CN(Cc1ccccc1)CO3 -16.3%
CC(C)CN(CCNC(=O)c1cn(C)c2ccc(S(=O)(=O)N3CCCC3)cc2c1=O)CC(C)C -9.44%
CCCN(C(=O)CCNC(=O)Cn1cnc2ccccc2c1=O)c1cccc(C)c1 -6.12%
CCOc1cc(C2c3c(oc4ccccc4c3=O)C(=O)N2c2ccccn2)ccc1O (configuration not stated) -15.1%
Cc1ccc(C)c(-c2[nH]c3c(c2-c2c(-n4cccc4)n(C)c(=O)n(C)c2=O)c(=O)n(C)c(=O)n3C)c1 0.924%
Cc1cccc(NC(=O)COc2cccc3c(=O)n(C)ccc23)c1C -12.2%
Cc1ccc(-n2nc(C(=O)N3CCN(c4cccc(C(F)(F)F)c4)CC3)c3c4ccccc4n(C)c3c2=O)cc1 -6.08%
CCOC(=O)c1ccc2[nH]c(CSc3nnc(-c4cccc(F)c4)n3C)cc(=O)c2c1 0.789%
CCC(C)NC(=O)c1sc2ncccc2c1-n1c(C)ccc1C (configuration not stated) -17.8%
Cc1ccc(CNc2cc(C)nc3nc(-c4cccc(C)c4)nn23)cc1 -37.9%
CCOC(=O)c1c(NC(=O)c2cc(Cl)ccc2Cl)sc2c1CCCC2 8.32%
COc1ccc(OC)c(NC(=O)c2cc(=O)c3c(C)cc(C)cc3o2)c1 -6.9%
Cc1ccc(CNc2nccn(-c3cc(C)cc(C)c3)c2=O)cc1 -8.9%
CCN(C(=O)CSc1nc2n[nH]c(C)c2c(=N)n1-c1cccc(OC)c1)c1cccc(C)c1 -4.47%
COc1ccc(-c2ccc(CCC(=O)O)n2-c2ccc(Cl)cc2C)cc1 -4.68%
CCN(C(=O)CSc1nc2ccccc2n1CC(=O)Nc1ccc(F)cc1F)c1ccccc1 -23.4%
CCOC(=O)c1cccc(NC(=O)CCc2c(C)nn(-c3ccc(N4CCOCC4)nn3)c2C)c1 1.28%
Cc1cn2c(=O)c(S(=O)(=O)NCc3ccccc3Cl)c(C)nc2s1 -3.89%
Cc1cc(C)n(CCc2nc3c4ccccc4nc(N4CCN(c5ccc(F)cc5)CC4)n3n2)n1 -4.85%
COCCCn1c(=O)c2sccc2n2c(CCCC(=O)NCc3ccc(F)cc3)nnc12 -9.54%
CCn1cc(S(=O)(=O)c2cccc(C)c2)c(=O)c2cc(F)c(N3CCN(c4ccccc4)CC3)cc21 4.38%
COc1ccc(NC(=O)C2CCN(c3cnccn3)CC2)cc1Cl 0.362%
Cc1ccc2[nH]c3c(=O)n(CC(=O)NCCc4ccc(Cl)cc4)ncc3c2c1 3.37%
COc1ccc(C2Oc3nc(SC)nnc3-c3ccccc3N2C(C)=O)cc1 (configuration not stated) -4.16%
